# Test results: PMC4336329 (PLoS ONE, 2015)
# Screen size: about 310,000 compounds; about 2,200 (0.71%) showed an effect of 50% or more. Effects have a minus sign here. The list shows a part of the results.
# Target: human ether-à-go-go-related gene (hERG) potassium channel (human, UniProt Q12809)
# Assay: primary screen, population patch clamp on CHO cells stably expressing hERG
# Sequence of human ether-à-go-go-related gene (hERG) potassium channel (Q12809 whole entry, looked up): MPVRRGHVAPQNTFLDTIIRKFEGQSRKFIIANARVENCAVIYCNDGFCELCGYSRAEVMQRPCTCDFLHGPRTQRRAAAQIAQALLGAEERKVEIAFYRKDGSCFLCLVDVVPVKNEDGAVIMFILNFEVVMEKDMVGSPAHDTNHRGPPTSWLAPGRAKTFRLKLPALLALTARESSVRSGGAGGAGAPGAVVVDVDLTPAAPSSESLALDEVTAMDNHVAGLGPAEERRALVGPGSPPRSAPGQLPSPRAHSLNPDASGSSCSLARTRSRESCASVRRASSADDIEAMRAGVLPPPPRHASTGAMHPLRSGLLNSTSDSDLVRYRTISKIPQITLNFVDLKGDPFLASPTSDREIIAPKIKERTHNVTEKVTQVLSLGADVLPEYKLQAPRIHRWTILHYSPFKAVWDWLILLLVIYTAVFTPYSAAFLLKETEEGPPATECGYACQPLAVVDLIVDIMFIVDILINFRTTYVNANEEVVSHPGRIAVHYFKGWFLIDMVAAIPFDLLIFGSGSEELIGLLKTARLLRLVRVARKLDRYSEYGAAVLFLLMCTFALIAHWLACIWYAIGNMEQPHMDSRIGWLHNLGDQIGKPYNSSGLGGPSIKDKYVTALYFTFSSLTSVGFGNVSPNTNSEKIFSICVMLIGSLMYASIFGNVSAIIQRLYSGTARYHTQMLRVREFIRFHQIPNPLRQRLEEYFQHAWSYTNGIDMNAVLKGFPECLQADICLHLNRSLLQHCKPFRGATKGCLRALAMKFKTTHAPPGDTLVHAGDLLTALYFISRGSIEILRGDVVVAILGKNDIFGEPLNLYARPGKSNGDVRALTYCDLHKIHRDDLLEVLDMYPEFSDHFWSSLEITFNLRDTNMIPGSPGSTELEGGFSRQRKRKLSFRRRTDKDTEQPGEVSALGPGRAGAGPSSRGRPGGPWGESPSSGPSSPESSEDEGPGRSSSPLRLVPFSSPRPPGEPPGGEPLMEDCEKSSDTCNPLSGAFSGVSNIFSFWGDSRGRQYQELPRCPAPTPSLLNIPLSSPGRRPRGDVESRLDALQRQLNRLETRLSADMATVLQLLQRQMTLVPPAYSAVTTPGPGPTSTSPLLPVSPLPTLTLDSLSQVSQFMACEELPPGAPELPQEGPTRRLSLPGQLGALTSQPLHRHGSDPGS
row,Compound,"hERG current change (%, negative = inhibition) at 1uM [%]"
1,Cc1ccc(C2=NC(C)(C)N=C2SCC(=O)Nc2ccc(Cl)cc2)cc1,-6.04
2,Cc1cc(C)c2c(N)c(C(=O)NCC3CCCCC3)sc2n1,13.6
3,CCOC(=O)N1CCc2c(sc3ncn(C)c(=O)c23)C1,10.5
4,Cn1c(=O)c2c(nc(NNC(=O)C(F)(F)F)n2C)n(C)c1=O,10.6
5,O=C(CSc1ncnc2c1cnn2-c1ccccc1Cl)N1CCN(C(=O)c2ccco2)CC1,-35.2
6,O=C(Nc1ccc(S(=O)(=O)N2CCCC2)cc1)c1ccc(Cl)nc1,8.31
7,CCCOC(=O)C(C)n1c(-c2ccccc2)nc2ccccc2c1=O (centres unmarked),9.2
8,CCN(C(=O)CSc1ncnc2sc(C)c(C)c12)C1CCS(=O)(=O)C1 (centres unmarked),-32.6
9,COc1ccc(OC)c(Nc2ncnc3sccc23)c1,5.2
10,Cc1cccc(C)c1NC(=O)NC1(C(=O)NCc2ccncc2)CCCCC1,12.6
11,Cc1ccc(S(=O)(=O)Nc2ccccc2CNC2CCCCC2)cc1,8.74
12,COc1ccc(CCNS(=O)(=O)c2ccc3c(c2)oc(=O)n3C)cc1OC,14.2
13,CCc1c(C2(O)CCCCC2)[nH]c2ccc(C#N)cc12,5.55
14,CCN(CC)C(=O)C1CCCN(C(=O)Nc2ccc3nsnc3c2)C1 (centres unmarked),9.25
15,CCOC(=O)N1CCC(N(CCN(C)C)C(=S)Nc2cccc(Cl)c2)CC1,-3.96
16,CCOC(=O)C(NC(=O)CC(C)C)(Nc1sc(C)c(CC)c1C#N)C(F)(F)F (centres unmarked),7.53
17,CC(C)[C@H](NC(=O)c1ccccc1)C(=O)OCC(=O)N1CCCCCC1,15.3
18,CCN(CC)S(=O)(=O)c1cccc(-c2n[nH]c(=S)n2CC(C)C)c1,11.5
19,O=C(c1ccccc1)c1c[nH]c(C(=O)NCc2cccnc2)c1,-1.51
20,O=C(CNC(=O)c1ccco1)Nc1cc(Cl)ccc1N1CCOCC1,11.8
21,CC(Oc1ccc(Br)cc1)C(=O)NCC(c1ccco1)N1CCCCC1 (centres unmarked),11.1
22,O=C(NCC1CCCO1)C1CCCN(S(=O)(=O)c2cc(Cl)ccc2Cl)C1 (centres unmarked),10.7
23,Cc1cc(=O)[nH]c(SCC(=O)Nc2nc3ccccc3s2)n1,7.4

row,Compound,"hERG current change (%, negative = inhibition) at 1uM [%]"
1,COC(=O)c1ccc(COc2ccc(C)cc2[N+](=O)[O-])o1,13.4
2,CN(C)CC1CCCCC1OC(=O)c1ccc(Cl)c(Cl)c1.Cl (centres unmarked),-8.41
3,O=C(NCCCN1CCCC1=O)C1CCN(S(=O)(=O)c2ccc(F)cc2)CC1,6.9
4,Cc1nnc(NC(=O)CSc2nnc(Cc3cccn3C)n2-c2cccc(C)c2C)s1,12.3
5,COc1ccc(CNC(=O)NCc2ccc(OC)c(OC)c2)cc1OC,17.1
6,Cc1ccc(NC(=O)Cn2nc(C(=O)Nc3ccc(C)cc3)ccc2=O)cc1,11.8
7,Cn1c(SCC(=O)N2CCOCC2)nnc1-c1ccncc1,16.5
8,CCC(=O)c1cn(CC(=O)Nc2cccc(OC)c2)c2ccccc12,20.1
9,CSCC[C@H](NC(=O)Cc1c(C)c2c(cc(C)c3c(C)coc32)oc1=O)C(=O)O,11.2
10,Cc1nc2cc(-c3sccc3-n3cccc3)nn2c(C)c1C,-1.06
11,CN(C)C(=O)c1snnc1-c1ccccc1,15.1
12,Cc1ccc(Nc2nc(-c3cccs3)cs2)nc1,6.15
13,CC(C)(C)C(=O)OCC1OC(n2cnc(C(N)=O)n2)C(O)C1O (centres unmarked),14.4
14,CCOc1cc(CNc2ccc3[nH]c(=O)[nH]c3c2)ccc1OCC(=O)NC(C)(C)C,13.8
15,C=CCn1nc2ccccc2c1OCCO,15.2
16,CCNc1nc(NCC)nc(OCCOC(=O)Nc2ccccc2)n1,14.9
17,C#CCOCCOCCOCCNc1nc(N2CCN(C(=O)Cn3cc(CCC[NH+]=C(N)N)nn3)CC2)nc(N2CCN(C(=O)[C@H]([C@@H](C)O)n3cc(CCCC[NH3+])nn3)CC2)n1.[Cl-],3.48
18,COc1ccc(SC[C@H](CC(C)C)N2CCN(CCc3ccccc3)CCC2=O)cc1,-51.6
19,CCOc1ccc2[nH]c(=O)c(CN(CCO)C3(c4nnnn4C4CCCCC4)CCCCC3)cc2c1,-0.893
20,Cc1cc(Cl)c2oc(C(=O)N(C)CCCN3CCOCC3)c(C)c2c1,4.34
21,Cc1cc2c(c(N3CCOCC3)n1)C(=O)OC2,14.5
22,COc1cc(NC(=O)CCNC(=O)Cn2ccc3ccccc3c2=O)cc(OC)c1OC,14.9
23,O=C(NCc1ccc2c(c1)OCO2)c1ccccc1,0.0534

row,Compound,"hERG current change (%, negative = inhibition) at 1uM [%]"
1,FC(F)(F)c1cccc(Cn2cnc(NC(=S)NCCc3ccccc3)n2)c1,5.2
2,COc1ccccc1C(=O)C1CCCN(C(=O)CCn2cnnn2)C1 (centres unmarked),8.14
3,COc1ccc2c(c1)CCc1c(C(=O)NCc3ccco3)noc1-2,7.76
4,CCOc1cc(C(=O)NC(CC(=O)O)c2ccc(OC3CCCC3)cc2)cc(OCC)c1OCC (centres unmarked),17.9
5,CCC[C@H]1COCCS(=O)(=O)N1Cc1ccc(Br)cc1,-3.31
6,O=C(NCc1ccc2c(c1)OCO2)C1CC(=O)N(c2ccc(F)cc2)C1 (centres unmarked),-10.6
7,C=CCc1cc(Cl)ccc1OCCNCCCOC.O=C(O)C(=O)O,-8.81
8,CC(=O)c1nn(-c2ccc(Cl)cc2)cc1C(=O)c1ccc(C)cc1,10
9,NC(CO)(CO)COCc1ccccc1,8.4
10,O=C(NCc1cccs1)c1cnc(Cl)c(Cl)c1,10.9
11,COCCn1c(SCC(=O)Nc2cc(C)on2)nnc1C(C)C,12.1
12,COc1cc(C=C2C(=O)OC(C)(C)OC2=O)cc(Cl)c1OCC(=O)Nc1ccccc1,0.325
13,Cc1nc2ccccc2cc1C(=O)N/N=C/c1ccco1,13.9
14,COc1cc(CNCCN(C)C)c(Br)cc1OC1CCCC1.Cl,23.9
15,O=C(C1CCCN(S(=O)(=O)c2cnc[nH]2)C1)N1CCN(c2ccc(Cl)cc2)CC1 (centres unmarked),-3.65
16,O=C(NCCCN1CCN(c2cccc(Cl)c2)CC1)c1ccc(N2CCCC2=O)cc1,0.715
17,COc1cc([N+](=O)[O-])ccc1NC(=S)Nc1cccc(C(=O)O)c1,15.4
18,COc1ccc(Cl)cc1NC(=O)Cn1cccc1,4.23
19,CCN1CCN(C(=O)C2CCN(S(=O)(=O)c3cc(Cl)ccc3Cl)CC2)CC1,1.46
20,Cc1ccc(OCCC(=O)OCC(=O)NC(=O)NC2CCCC2)cc1,10.4
21,CCc1ccccc1OCC(=O)NNCC(=O)Nc1cccc(C#N)c1,1.23
22,COc1cccc(CN(C)Cc2c(O)ccc3ccccc23)c1,13.9
23,Cc1cc(C(=O)COC(=O)CN(C)S(=O)(=O)c2ccc(Cl)cc2)c(C)n1Cc1cccs1,-1.92

row,Compound,"hERG current change (%, negative = inhibition) at 1uM [%]"
1,O=C(COc1ccc2ccccc2c1)NNC(=O)c1cccs1,6.38
2,CCOC(=O)C1CCN(C(=O)c2ccccc2NS(=O)(=O)c2ccc(F)c(F)c2)CC1,10.3
3,CC(C)OCCCNC(=O)c1cc(-c2cccs2)nc2ccccc12,4.92
4,CCOC(=O)[C@@H]1[C@H]2COc3ccccc3[C@@H]2N2C(=O)N(c3cccc(C)c3)C(=O)[C@]12C,3.83
5,Cn1c(NC(=O)/C=C/c2ccc(Cl)c(Cl)c2)cc(=O)n(C)c1=O,10.7
6,COc1cc(C(=O)Nc2nc(-c3ccc(Cl)cc3)c(C)s2)ccc1OCC(=O)Nc1ccc(F)cc1,11.4
7,C/C(=N\N1CCN(Cc2ccc(Cl)cc2)CC1)c1ccc(F)cc1,6.05
8,O=C(NCCc1ccccc1)C(=S)N1CCCCC1,14.4
9,CC(C)OC(=O)CSc1nc2ccccc2s1,13.2
10,Cn1c(CN2CCCC2)nc2cc(NC(=O)c3ccco3)ccc21,5.36
11,CC(C)n1c(O)c(N=NC(=O)Cc2csc(N3CCOCC3)n2)c2ccccc21,5.31
12,C/C(CCC1CC(C)OC1=O)=N\NC(N)=O (centres unmarked),17.2
13,CC1=CC(C)[C@H](/C=N/n2c(=O)[nH]c3c([nH]c4ccc(Br)cc43)c2=O)C(C)C1 (some centres unmarked),5.8
14,O=[N+]([O-])/C(=C\Nc1ccccc1)S(=O)(=O)c1ccccc1,8.85
15,COCc1cc(C)nc(SCC(=O)NCC2CCCO2)c1C#N (centres unmarked),10.1
16,O=C(Oc1ccc(/C=N/O)cc1)c1ccccc1,5.55
17,N#Cc1cc2c(nc1SCc1ccccc1)CCCCC2,9.75
18,O=C(OCc1cc2ccccc2[nH]c1=O)c1cccnc1,13.2
19,COc1ccccc1/C=C(/C(=O)OCC(=O)NCc1ccccc1)c1ccccc1,8.03
20,Nc1nc(-c2ccccc2)nc(-c2ccccc2O)n1,10.7
